Among the data in paper PMC4081100 are binding signal values, retold here.

This is a selection; strong and weak results do not stand in their true shares. For part of these data: At the low end of the ranking the order means little. Some of the results follow. For part of these data: Construct or isoform of the protein are uncertain.

Common to all, as to assay: universal protein binding microarray (PBM)
What all share (conditions): transcription factors of Arabidopsis thaliana; high values mean tight binding; most listed sequences are background and not binding sites; double strand, one strand shown

One test deals with GST-NTL6(1-168) (UniProt Q9SCK6).
For the next test, the target named is T1, GST-NAP(1-166) (UniProt O49255).
T1 sequence: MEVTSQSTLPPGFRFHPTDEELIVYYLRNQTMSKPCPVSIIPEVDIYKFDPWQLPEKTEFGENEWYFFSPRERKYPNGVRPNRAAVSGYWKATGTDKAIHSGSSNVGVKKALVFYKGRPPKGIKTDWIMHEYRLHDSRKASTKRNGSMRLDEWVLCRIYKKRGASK

The next test concerns the target T2, GST-NTL8 NAC domain (UniProt Q9XIN7).
T2 sequence: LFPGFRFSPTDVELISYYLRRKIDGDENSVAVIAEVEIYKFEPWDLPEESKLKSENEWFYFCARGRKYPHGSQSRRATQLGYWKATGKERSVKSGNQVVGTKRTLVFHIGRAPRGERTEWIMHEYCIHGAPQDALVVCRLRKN

The next test addresses T3, GST-VND7 NAC domain (UniProt Q9C8W9).
T3 sequence: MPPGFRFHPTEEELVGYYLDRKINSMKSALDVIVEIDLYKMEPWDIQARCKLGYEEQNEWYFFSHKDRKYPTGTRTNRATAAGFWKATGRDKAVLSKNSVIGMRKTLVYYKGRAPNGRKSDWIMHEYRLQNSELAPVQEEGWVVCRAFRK

In test [1] the target is T4, GST-VOZ2 (Arabidopsis thaliana) (UniProt Q9SLB9).
T4 sequence: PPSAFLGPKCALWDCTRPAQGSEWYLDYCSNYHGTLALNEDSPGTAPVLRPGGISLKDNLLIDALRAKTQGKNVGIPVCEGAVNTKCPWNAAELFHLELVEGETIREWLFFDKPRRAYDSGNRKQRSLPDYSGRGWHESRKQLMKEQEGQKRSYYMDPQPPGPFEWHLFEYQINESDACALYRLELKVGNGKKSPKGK

Another test has as its target GST-WRKY1(266-371) (UniProt Q9SI37).
The target of another test is T5, GST-ANAC055(1-171) (UniProt Q9LDY8).
T5 sequence: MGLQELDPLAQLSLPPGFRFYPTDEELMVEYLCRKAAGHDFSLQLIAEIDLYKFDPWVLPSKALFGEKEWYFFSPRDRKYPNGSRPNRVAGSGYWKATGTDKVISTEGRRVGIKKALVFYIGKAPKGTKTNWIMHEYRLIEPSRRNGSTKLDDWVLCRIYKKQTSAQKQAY

The next test deals with T6, GST-ANAC019 NAC domain (UniProt Q9C932).
T6 sequence: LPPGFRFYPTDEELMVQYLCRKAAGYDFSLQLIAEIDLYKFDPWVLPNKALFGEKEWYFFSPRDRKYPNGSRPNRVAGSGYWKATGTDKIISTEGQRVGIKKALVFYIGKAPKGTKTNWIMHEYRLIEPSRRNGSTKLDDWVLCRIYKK

The next test addresses T7, GST-ATAF1 NAC domain (UniProt Q39013).
T7 sequence: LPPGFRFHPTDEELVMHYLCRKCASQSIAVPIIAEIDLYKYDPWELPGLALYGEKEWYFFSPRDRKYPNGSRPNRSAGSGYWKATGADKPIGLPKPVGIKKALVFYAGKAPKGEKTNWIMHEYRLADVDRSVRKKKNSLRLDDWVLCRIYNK

Test [2] deals with T8, GST-ANAC092(1-285) full length (UniProt Q9FKA0).
T8 sequence: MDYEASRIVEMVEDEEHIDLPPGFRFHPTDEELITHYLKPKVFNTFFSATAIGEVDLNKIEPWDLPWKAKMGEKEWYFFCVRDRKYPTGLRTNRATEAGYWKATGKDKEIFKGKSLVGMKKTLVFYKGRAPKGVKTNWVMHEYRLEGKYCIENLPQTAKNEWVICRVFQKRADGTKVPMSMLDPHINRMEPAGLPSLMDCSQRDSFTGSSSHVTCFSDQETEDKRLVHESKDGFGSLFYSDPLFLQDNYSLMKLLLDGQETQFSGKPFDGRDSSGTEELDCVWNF

The target in the next test is T9, GST-NST2(1-184) (UniProt Q9M274).
T9 sequence: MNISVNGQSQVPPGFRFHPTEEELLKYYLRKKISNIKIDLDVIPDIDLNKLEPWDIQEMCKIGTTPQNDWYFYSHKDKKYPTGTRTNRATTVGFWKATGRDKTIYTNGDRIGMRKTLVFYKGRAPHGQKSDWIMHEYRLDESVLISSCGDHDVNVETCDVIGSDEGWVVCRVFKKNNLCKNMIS

Consider CAAGGAAA, for which the binding signal with GST-NTL6(1-168) is 0.31 E-score; with GST-NAP(1-166), 0.0952 E-score; with GST-NTL8 NAC domain it was 0.46 E-score; in the test with GST-VND7 NAC domain, 0.181 E-score; in [1], 0.0854 E-score; in the test with GST-WRKY1(266-371), 0.0889 E-score.
With CACGCAAC, the binding signal with GST-NTL6(1-168) was 0.0393 E-score; with GST-ANAC055(1-171) it was 0.463 E-score; with GST-NTL8 NAC domain, 0.181 E-score; with GST-VND7 NAC domain it was 0.484 E-score; in test [1], 0.275 E-score; in the test with GST-WRKY1(266-371) it was -0.0587 E-score.
Regarding GGCGTGTA, the binding signal with GST-NTL6(1-168) was -0.0585 E-score; with GST-ANAC019 NAC domain, 0.198 E-score; with GST-NAP(1-166), 0.13 E-score; with GST-NTL8 NAC domain, -0.0443 E-score; with GST-VND7 NAC domain, -0.00476 E-score; in [1], 0.141 E-score. For the same sequence, in the test with GST-WRKY1(266-371), the binding signal was -0.1 E-score.
Regarding CACGGCAA, the binding signal is 0.0683 E-score in the test with GST-NTL6(1-168); 0.364 E-score in the test with GST-ATAF1 NAC domain; 0.0895 E-score in the test with GST-NTL8 NAC domain; 0.444 E-score in the test with GST-VND7 NAC domain; 0.0419 E-score in test [1]; 0.0404 E-score in the test with GST-WRKY1(266-371).
As for CTTACTTC, the binding signal was 0.413 E-score with GST-NTL6(1-168); -0.0305 E-score with GST-NAP(1-166); 0.4 E-score with GST-NTL8 NAC domain; 0.23 E-score with GST-VND7 NAC domain; 0.116 E-score in test [1]; 0.0256 E-score with GST-WRKY1(266-371).
For GAGACGTA, the binding signal in the test with GST-NTL6(1-168) was 0.034 E-score; with GST-ANAC055(1-171), 0.395 E-score; with GST-ATAF1 NAC domain it was 0.411 E-score; in the test with GST-NAP(1-166), 0.396 E-score; with GST-NTL8 NAC domain, -0.0497 E-score; with GST-VND7 NAC domain it was 0.413 E-score. Also, the values for the binding signal (in test [1]; in the test with GST-WRKY1(266-371)) were -0.119 E-score and 0.0734 E-score, respectively.
On to CTTACGTA, for which the binding signal was determined as 0.161 E-score with GST-NTL6(1-168); 0.435 E-score in test [2]; 0.433 E-score with GST-VND7 NAC domain; 0.0457 E-score in test [1]; 0.0499 E-score with GST-WRKY1(266-371).
On to ACGTTAGC, for which the binding signal is -0.0979 E-score in the test with GST-NTL6(1-168); 0.0938 E-score with GST-ANAC055(1-171); -0.0549 E-score in the test with GST-NTL8 NAC domain; 0.128 E-score with GST-VND7 NAC domain; 0.0242 E-score in test [1]; -0.0388 E-score with GST-WRKY1(266-371).
On to TCACGCCA, for which the binding signal is -0.137 E-score in the test with GST-NTL6(1-168); 0.223 E-score with GST-ANAC019 NAC domain; 0.156 E-score with GST-ANAC055(1-171); 0.263 E-score in the test with GST-NST2(1-184); -0.0629 E-score with GST-NTL8 NAC domain; -0.00158 E-score with GST-VND7 NAC domain. For the same sequence, the results for the binding signal (in test [1]; in the test with GST-WRKY1(266-371)) were 0.212 E-score and -0.152 E-score, respectively.
Consider CGAGGAAA, for which the binding signal with GST-NTL6(1-168) was 0.138 E-score; in the test with GST-ANAC019 NAC domain, 0.0533 E-score; in the test with GST-ANAC055(1-171), 0.139 E-score; with GST-NAP(1-166), 0.0581 E-score; with GST-NTL8 NAC domain, 0.442 E-score; with GST-VND7 NAC domain, 0.173 E-score. Besides, the binding signal in [1] was 0.1 E-score; with GST-WRKY1(266-371), -0.155 E-score.
CCACGCAA: the binding signal with GST-NTL6(1-168) was 0.116 E-score; with GST-NAP(1-166), 0.305 E-score; in the test with GST-NTL8 NAC domain, 0.0836 E-score; with GST-VND7 NAC domain, 0.337 E-score; in test [1] it was 0.177 E-score; in the test with GST-WRKY1(266-371), 0.032 E-score.
Regarding ATACGGAA, the binding signal with GST-NTL6(1-168) was 0.0254 E-score; in the test with GST-NST2(1-184), 0.223 E-score; with GST-VND7 NAC domain it was 0.38 E-score; in test [1], -0.0916 E-score; with GST-WRKY1(266-371), -0.00982 E-score.
For ATGGCGTA, the binding signal is -0.102 E-score in the test with GST-NTL6(1-168); -0.114 E-score with GST-ANAC019 NAC domain; 0.0256 E-score with GST-ANAC055(1-171); 0.0267 E-score in the test with GST-NTL8 NAC domain; 0.192 E-score with GST-VND7 NAC domain; 0.016 E-score in [1]. Moreover, the binding signal with GST-WRKY1(266-371) was -0.102 E-score.
Regarding GTACGCCA, the binding signal with GST-NTL6(1-168) is -0.0218 E-score; in the test with GST-NAP(1-166) it was 0.0526 E-score; in the test with GST-NTL8 NAC domain, -0.0304 E-score; with GST-VND7 NAC domain, 0.114 E-score; in test [1], 0.138 E-score; with GST-WRKY1(266-371), -0.0721 E-score.
On to ACACGTTA, for which the binding signal in the test with GST-NTL6(1-168) was -0.0829 E-score; in the test with GST-NAP(1-166) it was 0.222 E-score; with GST-NTL8 NAC domain it was 0.00655 E-score; with GST-VND7 NAC domain, 0.237 E-score; in test [1], 0.034 E-score; in the test with GST-WRKY1(266-371), -0.085 E-score.
Turning to GCAAGGAA, the binding signal with GST-NTL6(1-168) turned out to be 0.418 E-score; with GST-ANAC055(1-171), 0.211 E-score; with GST-ATAF1 NAC domain it was 0.18 E-score; in test [2], 0.371 E-score; in the test with GST-VND7 NAC domain it was 0.229 E-score; in test [1], 0.0652 E-score. Moreover, in the test with GST-WRKY1(266-371), the binding signal was -0.0313 E-score.
With GTACGTAA, the binding signal in the test with GST-NTL6(1-168) was 0.174 E-score; with GST-ANAC055(1-171) it was 0.42 E-score; in test [2], 0.441 E-score; with GST-NST2(1-184), 0.276 E-score; in the test with GST-NTL8 NAC domain, 0.167 E-score; with GST-VND7 NAC domain it was 0.44 E-score. In addition, in [1], the binding signal came to 0.145 E-score.
CGTGGTCA: the binding signal in the test with GST-NTL6(1-168) was -0.0886 E-score; with GST-ANAC055(1-171), 0.0851 E-score; with GST-NAP(1-166), -0.0571 E-score; with GST-NST2(1-184), -0.0758 E-score; with GST-NTL8 NAC domain, 0.00556 E-score; in the test with GST-VND7 NAC domain it was 0.128 E-score. The sequence also gave a binding signal in test [1] of -0.0408 E-score.
Take AAGTAATA: the binding signal with GST-NTL6(1-168) came to 0.428 E-score; with GST-ANAC019 NAC domain, 0.0278 E-score; with GST-ANAC055(1-171) it was 0.215 E-score; with GST-ATAF1 NAC domain, 0.207 E-score; in test [2] it was 0.327 E-score; in the test with GST-NAP(1-166) it was 0.14 E-score. Besides, the binding signal with GST-NTL8 NAC domain came to 0.211 E-score; with GST-VND7 NAC domain it was 0.136 E-score; in [1], 0.0754 E-score.
As to GTCGCGTA, the binding signal with GST-NTL6(1-168) was 0.0763 E-score; in the test with GST-ANAC019 NAC domain it was -0.0345 E-score; with GST-ANAC055(1-171) it was 0.0476 E-score; with GST-ATAF1 NAC domain it was 0.195 E-score; with GST-NAP(1-166), 0.171 E-score; with GST-NST2(1-184), 0.109 E-score. Besides, the binding signal is -0.0551 E-score with GST-NTL8 NAC domain, 0.233 E-score with GST-VND7 NAC domain and 0.114 E-score in test [1].
